The campaign covered roughly 310,000 compounds. About 2,200 (0.71%) showed an effect of 50% or more. The effect is printed as a negative number. This is one part of the list.
Biological target: human ether-à-go-go-related gene (hERG) potassium channel (human, UniProt Q12809)
Assay: primary screen, population patch clamp on CHO cells stably expressing hERG

Sequence of human ether-à-go-go-related gene (hERG) potassium channel (Q12809 whole entry, looked up): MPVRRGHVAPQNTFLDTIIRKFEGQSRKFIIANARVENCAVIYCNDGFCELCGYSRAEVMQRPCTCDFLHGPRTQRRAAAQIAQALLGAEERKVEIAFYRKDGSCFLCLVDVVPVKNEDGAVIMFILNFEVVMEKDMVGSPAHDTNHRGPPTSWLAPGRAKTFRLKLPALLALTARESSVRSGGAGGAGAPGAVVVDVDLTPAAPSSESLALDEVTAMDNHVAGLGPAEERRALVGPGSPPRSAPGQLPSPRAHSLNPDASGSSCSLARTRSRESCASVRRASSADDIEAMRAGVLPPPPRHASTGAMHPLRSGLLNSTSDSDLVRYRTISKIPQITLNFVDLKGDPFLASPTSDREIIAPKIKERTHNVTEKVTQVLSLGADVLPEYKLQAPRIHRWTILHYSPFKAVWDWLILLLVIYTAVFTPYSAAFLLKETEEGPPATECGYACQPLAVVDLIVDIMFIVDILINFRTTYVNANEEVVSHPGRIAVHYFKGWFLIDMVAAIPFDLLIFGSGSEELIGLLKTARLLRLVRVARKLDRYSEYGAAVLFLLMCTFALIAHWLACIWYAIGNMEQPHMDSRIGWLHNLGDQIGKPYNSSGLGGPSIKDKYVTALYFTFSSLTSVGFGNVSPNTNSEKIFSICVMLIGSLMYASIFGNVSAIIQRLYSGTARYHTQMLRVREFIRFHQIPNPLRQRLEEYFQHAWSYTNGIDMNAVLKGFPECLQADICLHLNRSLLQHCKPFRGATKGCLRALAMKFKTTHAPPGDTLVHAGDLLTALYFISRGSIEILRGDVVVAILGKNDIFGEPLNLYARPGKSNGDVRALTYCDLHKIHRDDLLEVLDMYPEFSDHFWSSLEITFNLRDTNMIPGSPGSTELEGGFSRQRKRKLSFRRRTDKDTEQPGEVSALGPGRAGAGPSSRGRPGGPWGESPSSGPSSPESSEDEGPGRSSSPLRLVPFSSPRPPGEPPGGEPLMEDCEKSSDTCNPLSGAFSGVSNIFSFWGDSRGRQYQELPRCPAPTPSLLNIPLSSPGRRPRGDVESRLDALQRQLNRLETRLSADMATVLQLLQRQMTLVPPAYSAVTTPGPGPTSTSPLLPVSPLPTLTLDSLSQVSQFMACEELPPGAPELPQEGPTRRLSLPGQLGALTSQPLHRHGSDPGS

| Compound | hERG current change (%, negative = inhibition) at 1uM [%] |
| --- | --- |
| CCCCc1cc(=O)oc2cc(OCC(=O)NC(Cc3c[nH]c4ccc(O)cc34)C(=O)O)ccc12 (centres unmarked) | 6.8 |
| CCOc1ccc2nc(NC(=O)C(CC)Sc3nc(C)cc(=O)[nH]3)sc2c1 (centres unmarked) | 8.04 |
| Cc1nnc(N/N=C/c2ccccn2)[nH]c1=O | 12.4 |
| CCOc1ccc(NC(=O)C2CCCN(S(=O)(=O)c3c(C)n[nH]c3C)C2)cc1 (centres unmarked) | 4.92 |
| CCC(C)NC(=O)COCc1cc(-c2ccc3c(c2)OCO3)on1 (centres unmarked) | 10.8 |
| NC(=O)CSc1nnc(Cc2ccc3c(c2)OCO3)n1C1CCCCC1 | 1.41 |
| COc1ccccc1CC1(C)NC(=O)N(CC(=O)N2CCc3ccccc3C2)C1=O (centres unmarked) | -10.1 |
| CC1=CC(C)(C)Nc2ccc(OC(=O)CN3C(=O)c4ccccc4C3=O)cc21 | 21 |
| CCC(NC(=O)NCCCn1ccnc1)(C(F)(F)F)C(F)(F)F | 13.1 |
| Cc1cc(-c2ccccc2)nc(N/N=C/c2cccnc2)n1 | 17.4 |
| Cc1oc(-c2ccc(Cl)cc2)nc1CS(=O)CC(=O)NCc1ccccc1 (centres unmarked) | 10.6 |
| CCCc1nc2ccc(NC(C)=O)cc2c(=O)n1Cc1cccc(Cl)c1 | 5.73 |
| COc1cccc(/C=C/C(=O)OCC(=O)Nc2ccc(Cl)c(S(=O)(=O)N(C)C)c2)c1 | 16.4 |
| O=C(NCCCCc1ccccc1)c1ccccc1 | 8.89 |
| CCCC(=O)C1=C(O)C(C(=O)OC)C(C)(C)CC1=NCc1ccccc1 (centres unmarked) | 10.2 |
| Cc1cc2c(c(=O)n1Cc1cccnc1)C(Cc1ccccc1)C(C#N)=C(N)O2 (centres unmarked) | -9.18 |
| Cc1ccc(-c2nn(CCC(=O)Nc3cccnc3)c(=O)c3ccccc23)cc1 | -15.2 |
| Cc1ccc(C(C)C)c(OCc2ccc(C(=O)N/N=C/c3cccc(O)c3O)cc2)c1 | 15.9 |
| Cc1nc(-c2cccc(NC(=O)c3cccs3)c2)cs1 | 7.12 |
| CCc1[nH]nc2c1C(Cc1ccccc1)C(C#N)=C(N)O2 (centres unmarked) | -17.1 |
| Cc1ccsc1/C=N/NC(=O)C1CC(=O)N(c2ccccc2)C1 (centres unmarked) | -3.07 |
| CS(=O)(=O)n1nc(NCc2cccs2)nc1NCc1cccs1 | 10.5 |

| Compound | hERG current change (%, negative = inhibition) at 1uM [%] |
| --- | --- |
| CCC(=O)NNc1cccc(Cl)n1 | 8.04 |
| COC(=O)CCN(C)CCC(=O)OC.Cl | 6.66 |
| O=C(CC1SC(=NC2CCCCC2)NC1=O)Nc1ccccc1 (centres unmarked) | 11.9 |
| CCOC(=O)N1CCN(Cc2ccc(OCC(O)CN3CCCCC3)cc2)CC1 (centres unmarked) | 17.4 |
| CC(C)CS(=O)(=O)C1=NN2C(=N)/C(=C\c3ccc(OC(=O)c4ccco4)cc3)C(=O)N=C2S1 | 3.57 |
| CN1CCN(c2ccc(-c3cccc(NC(=O)COc4ccc(Cl)cc4Cl)c3)nn2)CC1 | 5.98 |
| CCCCCN1CN(S(=O)(=O)c2cccs2)c2nc3ccccc3nc21 | 6.37 |
| CC(C)(C)C1CCC(=NNC(=O)CN(c2ccccc2)S(=O)(=O)c2ccccc2[N+](=O)[O-])CC1 (centres unmarked) | 14 |
| c1ccc(COc2ccc(OCCOCCn3cncn3)cc2)cc1 | -5.15 |
| CCOC(=O)C1=C(C)NC(=S)NC1c1ccc(OCC(=O)N2CCCCC2)cc1 (centres unmarked) | 6.25 |
| CCOc1ccccc1-n1c(SCC(N)=O)nnc1-c1ccccc1 | 2.08 |
| Cc1noc(NS(=O)(=O)c2ccc(NC(=O)CSc3nc4c(cc3C#N)CCCCC4)cc2)c1C | -0.778 |
| CNS(=O)(=O)c1ccc(NC(=O)c2ccoc2C)cc1 | 11 |
| Cc1cnc(C(=O)OCC(=O)Nc2ccc(Br)cc2F)cn1 | 11.2 |
| C/C(=N\Nc1ccccc1)c1cccc(N)c1 | 12.4 |
| C=CCn1c(SCC(=O)Nc2ccccc2C)nnc1-c1ccncc1 | 13.2 |
| CCOc1ccc2oc(C(=O)NCc3nc4ccccc4[nH]3)c(C)c2c1 | 13.3 |
| CCCc1sc(N)nc1-c1ccc(C)cc1 | 0.826 |
| COC(=O)c1ccc(Nc2nc(C)nc3c2nnn3Cc2ccccc2)cc1 | 15.4 |
| CC(C)Oc1cccc(C(=O)NC(=S)Nc2cccc(NC(=O)c3ccccc3Cl)c2)c1 | -1.78 |
| COc1ccc(/C(C)=N/NC(=O)c2nc(C)cc(C)n2)cc1 | 5.24 |
| COc1ccc(-c2cc(C(=O)N3CCN(c4ccccc4)CC3)no2)cc1OC | 17.8 |

— publication PMC4336329 (PLoS ONE, 2015)
